# Experimental data taken from PubChem BioAssay (NCI).
# The source holds several records for some structures; these can differ, active in one and inactive in another.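 Assay: single dose, 48 h. Readout: percent growth (0 = no net growth; negative = cell death). Active: <10.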 For part of its entries the source gives two or more results. This list holds those alone. There may be further records. This drug was run again and again over the years, at the concentration stated with the values; each value is one run. Signs of the kind (2×) give the number of equal values in this list.
# Key:
# Assay in all cases: NCI-60 one-dose screen, 48 h (100 = growth as untreated, 0 = no growth, -100 = all killed)
# MOLT-4 leukemia = details: 2.5 mM
# SR leukemia = details: 2.5 mM
# RPMI-8226 leukemia = details: 2.5 mM; runs of 1991
compound,measurement,setting,value
O=c1[nH]cc(F)c(=O)[nH]1,growth,MOLT-4 leukemia; runs of 1997,"active: 5.06, -21.3, -16.5, -22.3, 8.23, -26.7, -23.3, -31.8, -20.6, 0.704, 2.26, -12.9, 9.77, 3.7, -43.2, 1.4, 1.84, -5.57, -37.5, -25.2, -17.9, 1.16, -19.9, -52.8, -32.6% and inactive: 61.6, 10.2, 22.3, 41.1, 31.2, 18.9, 21.6, 19.6, 131, 15.8, 17.7, 47.3, 38.9, 22.2, 13.5, 35.7, 11.9, 23.3%"
same,growth,MOLT-4 leukemia; runs of 1998,"inactive: 25.5, 17.2, 39.7, 21.4, 22.7, 27.4, 42.2, 11.5, 35.6, 12.9% and active: -2.04, -24.2, -25, -39, 9.96, -19.5, 3.49, -11, 2.74, -56, 7.45, -37.5, 6.47, -19.1, -1.91, -18, 5.84%"
same,growth,MOLT-4 leukemia; runs of 1999,"active: 8.91, -22.3, 3.77, -50.6, 5.82, -55.4, -40.4, 0.53, 4.47, -72.6, 7.27, 6.22% and inactive: 18.3, 15.1, 19.1, 96.3%"
same,growth,MOLT-4 leukemia; runs of 2000,"active: 1%, 0.815% and inactive: 28.6%, 12.7%"
same,growth,SR leukemia; runs of 1991,"inactive: 10.7, 22, 12.7, 14.2, 21.8, 64.2, 17.1, 44.4, 37.8% and active: 8.79, 3.79, 9.57, 3.34, 8.21%"
same,growth,SR leukemia; runs of 1992,"inactive: 19.3, 18, 12.6, 47.5, 13.6, 37.1, 18.8, 34.7, 25.9, 20.9, 25.2, 21.5 (2×), 22.2, 16 (2×), 10.8, 15.2, 22.1, 15.6, 19.4, 52, 49.1, 18.7, 11.9, 12.7, 19, 14, 31.5, 19.2, 23.8, 84.8, 14.6, 12.2, 14.2, 27.9% and active: -10.6, -28, -13.9 (2×), 0.442, -41, -34.9, -6.43, -30.7, -13.3, -13, 9.67, -37.8, -21.5, -30.3, -5.13, -10.5, 8.2, -14.9, -11.7, 4.92, 7.6, -4.23, -20.9, -13.1, 7.93, 4.29, 8.85, 0.731, 0.249, 2.48, -10.4, 4.81, 4.2, 4.91, -9.81, -10.3, 5.59, 8.74, -26.4%"
same,growth,SR leukemia; runs of 1993,"inactive: 22.9, 17, 38.6, 22.6, 20.6, 20.7, 15.3, 26.8, 29.1, 53.4, 17.5, 26.5, 12.7, 11.4, 14.1, 58.7, 17.8, 16.7, 96.2, 45.5, 24.2, 16.5, 16.9, 24.4, 23.9% and active: 6.61, -15.2, 6.65, -2.05, 1.08, 9.09, -5.46, 5.77, -1.49, 1.75, -21, -12.9, -14.9, 9.28, -1.4, 5.21, -17.8, -3.56, 2.15, -2.96, -42.6, -19.9, 3.14%"
same,growth,SR leukemia; runs of 1994,"inactive: 21.3, 18.7, 28.1, 13.4, 51, 39.3, 23.6, 11.5 (2×), 17.3, 65.1, 20.9, 20.2, 54.8, 24.7, 17.7, 22.1, 30.6, 32.5, 17.1% and active: -35.5, 9.6, -15.5, -33.9, -5.47, 5.11, -26.6, 1.13, -38%"
same,growth,SR leukemia; runs of 1995,"active: -6.57, -34.1, -18, -12.6, -5.42, 5.55, 7.2, -18.6, 3.04, -37.8, -3.4, -13.4, 9.74, -40.8, 4.51, 3.19, 8.85, 0.895, -42.5, -54.3, -47.5, -14.8, -10.1, -52.4, -38.8, -13.8, -51, 0.187% and inactive: 12.4, 16.8, 32, 14.7, 18.7, 21.4, 29.9, 11.3%"
same,growth,SR leukemia; runs of 1996,"active: -25.2, -22.4, 5.35, -22.5, 0.454, -5.3, -47.8, 8.62, -4.33, -24.7, -25.3, -6.01, -12.7, -57.5, -47.6, -12.4, -15.5, -25.6, -17.3, -49.6, -14, -67.1, -50.5, -25.9, -54.9, -5.84, -94.6, -21.3, -21.5% and inactive: 39.2, 31.3, 28.6, 19.6, 26, 56.7, 54.1, 23.9%"
same,growth,SR leukemia; runs of 1997,"active: -31.4, -28, -26.8, -39.4, -69.9, -53.6, -19.5, -33.6, -55, -7.14, 1.86, -18.4, 9.39, 3.05, -65.6, -17.4% and inactive: 38.6, 39.6, 40, 12.6, 77.4, 25.2, 26.2, 16.4, 46.3, 51.5%"
same,growth,SR leukemia; runs of 1998,"inactive: 13.1, 26.5, 17.5, 20.7, 10.1, 38.5, 19.7, 13.5, 35.9, 11.9% and active: 8.87, 9.06, -47.2, 6.41, -6.47, 4.71, -28.8, 4.34, -29.2, 2.97, 9.83%"
same,growth,SR leukemia; runs of 1999,"inactive: 33.5%, 11.4%, 17.1% and active: -50.9, -19.6, -14.2, 5.9, 4.28%"
same,growth,SR leukemia; runs of 2000,"active: -40.6%, 9.26%, -54.2%"
same,growth,RPMI-8226 leukemia,"inactive: 22.4, 23.5, 35.7, 27, 13, 10.6, 26, 20.2, 13.6, 28, 50.6, 13.3% and active: -42.6%, 8.55%, 8.27%"
